Test results taken from paper PMC12136788.
This is one part of the list.

B1: 116608439_116615018_2141_3pUTR_ENSG00000151553_ENST00000369248|human|control|control (ssRNA)
RNA: GGGAGUUCUACAGUCCGACGAUCUUCCAAUGCUUUUGGAGACCCAGGCCACUCCCAUCUUAAGCAGAUAGCACAGUAGUCUCGGAACUGCCUAUGAGCGUCUCGGAGGUAAGUGUCAUAUCCUGUGCCCUCAACAUGGUAGGACAACAGAGGAUUGAGCAUCA
B2: chr10:33190432:33190433:-_ENSG00000150093_ENST00000302278|hu_mus|hu_hu_hu_mus_True|1_1 (ssRNA)
RNA: GGGAGUUCUACAGUCCGACGAUCUACAUUUUCCAAACCUGCAUGUGAAUAAAACCCUGGCCACAGAGCCCCAAAACUACCCUACUGUGACUAAGAUGCUGCUGCUGUGAGCUUGGUGUUGCAAAAUCCGCCUGAGUCAGUACUCAACAGAGGAUUGAGCAUCA
B3: chrX:71549400:71549401:+_ENSMUSG00000019087_ENSMUST00000019231|mus_hu|mus_mus_mus_hu_False|58_88 (ssRNA)
RNA: GGGAGUUCUACAGUCCGACGAUCGCAGUAGGAAGAGGGAAGCUCUUCAUCCACUGUCGCUGCAGGGUGGGAAAGCACAACCUAGACCACCGUCCCACCCUCAACCCCCCCACUGGCACAGGGUCACACAAUCUGGGUCAAAGACAACAGAGGAUUGAGCAUCA
B4: chr5:54390236:54390237:+_ENSMUSG00000039156_ENSMUST00000071083|mus_hu|FALSE|FALSE (ssRNA)
RNA: GGGAGUUCUACAGUCCGACGAUCACUCAGUGACAUGCAGGGAUCUGUCAUGAGCGCCGGGCUAUCGCCGGCCGCCGCGGCGGGAGAGGAGGCGGCAGUUGCGGCAGAGCCAGUCGCCCGCCGCCCGCGGAGGUGCCGGGGCACCAACAGAGGAUUGAGCAUCA
B5: chr7:129114946:129114947:-_ENSMUSG00000034951_ENSMUST00000057576|mus_mus|FALSE|FALSE (ssRNA)
RNA: GGGAGUUCUACAGUCCGACGAUCAUCCACAAGCAUCAUCAAGCUGUUCUGCAUGCCGGUCAGCUUUGCAGAAAUCACAGCUAUGUCUUGAGUUUUGAAGGUCUCCUCAAUAUCAGCACUCAGCGUGCUCCACUUGUCAGCUUCCAACAGAGGAUUGAGCAUCA
B6: chr12:493273:493274:-_ENSG00000073614_ENST00000399788|hu_mus|FALSE|FALSE (ssRNA)
RNA: GGGAGUUCUACAGUCCGACGAUCUUUUCUCUCCACCACAGGGAUCUUCAAUGUAGAUCCUUGAAGUUCCCAAAAUUUUGCCAGUUGAUCCAAGAAGUCCAAUCUUACUCUAGUCAUUGCCUCAAGUUCAUUCAGGCGCUGGACCAACAGAGGAUUGAGCAUCA
B7: chr1:23395093:23395094:+_ENSG00000004487_ENST00000356634|perfect_dup|motif|central (ssRNA)
RNA: GGGAGUUCUACAGUCCGACGAUCUGCCUGGCCAAGGGACACAGGCUUAUUAUUGAGGACAUUGAAGUCUAGUUGAUGACGGAGGUAAGAUGUAGCUUCUAGCAACCGGUUAAACUCUUGCUCUACCAUUUCAUCUUUCUCUUUCAACAGAGGAUUGAGCAUCA
B8: chr3:123074248:123074249:-_ENSMUSG00000028114_ENSMUST00000029759|mus_hu|FALSE|FALSE (ssRNA)
RNA: GGGAGUUCUACAGUCCGACGAUCAAUUGUACUAUCUCUUCCAAAUAGAUGAAGGCGUCUUCUACCAAGACAAAAAUGCUCAAUUAUAUGAAAAAUUUCUACAGGUUUUUCUAUAUUGCCAAUUUCAGGUUCUUCUGUGAUAAUCAACAGAGGAUUGAGCAUCA
B9: chr15:31432613:31432614:-_ENSMUSG00000039100_ENSMUST00000090227|mus_hu|FALSE|FALSE (ssRNA)
RNA: GGGAGUUCUACAGUCCGACGAUCGCGGCUUGGUGUAAAAGCAAAUCUGUGCUUGCAUAAUUCACAGUAUUCUUUUCGACUGUGUUUCAGCCAUUGAACUAAGCAUUCUUGAUGGAUAAACUUAAUACUGCCAGUACAUACACACAACAGAGGAUUGAGCAUCA
B10: chr3:135071361:135071362:-_ENSMUSG00000028165_ENSMUST00000029815|mus_mus|motif|central (ssRNA)
RNA: GGGAGUUCUACAGUCCGACGAUCAAGGGGUUUUACUGCCUCAAAAUAUUGUUGAUGGCAAUUAUUUUUCAUAAUUCUUCGGAAAGCAGCAGAGUUCCACAAAAGGCCAAAAAAAUGGCAAAUGACUUCAAAUGAGCAAAACAACAACAGAGGAUUGAGCAUCA
B11: 77618270_77618390_2455_CDS_ENSG00000091656_ENST00000521891|human|control|control (ssRNA)
RNA: GGGAGUUCUACAGUCCGACGAUCACCCCGGGCAAGCCUGGGGUGAGGCUGUCCAGUCUUACAAUAAACACAAGAGCCACCCGGCUCAGGGUGUUUCUCCUUCAUAUGGGCCUCCAGGGUCUGCUGAUAUUUGUAGUGCCAGUUCAACAGAGGAUUGAGCAUCA
B12: chr6:87000925:87000926:+_ENSMUSG00000029992_ENSMUST00000113658|mus_mus|FALSE|FALSE (ssRNA)
RNA: GGGAGUUCUACAGUCCGACGAUCUUUGAUUAGUGUCUCCAAGAUUUCUCGUCUUGUUCGAGGAACAUGGUAAUUUAAAUAAGCAAAUAUACCGCACAUGAUGUUGGUCACGGGCGAGGGCUGAGCUGUCGGGCGCGCGGAGAGCAACAGAGGAUUGAGCAUCA
B13: chr3:100438856:100438857:+_ENSG00000114354_ENST00000490574|hu_hu|FALSE|FALSE (ssRNA)
RNA: GGGAGUUCUACAGUCCGACGAUCAACAAAUAAUGUCAGUUUCAGUAUCCUACUGCACUGAAUUGCAAAGGAAAGGUCAGAACUAUCAAAAAUUGUUAUAAGAUCUCCAUCUUCAUCUUUAUACUUUAUUGUUACUUCAUCAUUCAACAGAGGAUUGAGCAUCA
B14: chr14:78183846:78183847:+_ENSG00000119705_ENST00000557342|hu_hu|hu_hu_hu_mus_False|18_78 (ssRNA)
RNA: GGGAGUUCUACAGUCCGACGAUCUCUCAGAAAUCUUUCUUCAUCAGAUGUUUGAGCUGUUUGCGGAGCCUUUGCUCUUUGAGCUUGAACGUGGAUCUAUGGGAGGGAAAGCACUGUAUUUUCCUGUAAUUUUUUUUUUAAAGACAACAGAGGAUUGAGCAUCA

Each binder was assayed against T1, UNK ZnF1-3 (human, UniProt Q9C0B0 31-174) (assay: nsRBNS (natural sequence RNA bind-n-seq); RBNS binding buffer (assumed for nsRBNS): 25 mM Tris pH 7.5, 150 mM KCl, 3 mM MgCl2, 0.01% Triton X-100, 500 ug/ml BSA, 20 U/ml SUPERase-In, 4 C; UNK is unkempt and MSI1 is Musashi-1; names of the RNAs are library labels; protein concentration not given here; high values mean tight binding).
T1 sequence: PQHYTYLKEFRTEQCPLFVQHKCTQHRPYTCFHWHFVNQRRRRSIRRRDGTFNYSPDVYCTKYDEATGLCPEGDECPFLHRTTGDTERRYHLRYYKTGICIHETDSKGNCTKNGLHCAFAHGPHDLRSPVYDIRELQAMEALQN
Binder B1 has a binding signal of 0.715 enrichment R.
In the case of B2, the binding signal is reported as 1.08 enrichment R.
Binder B3 has a binding signal of 0.892 enrichment R.
B4 was tested, and the binding signal was 0.719 enrichment R.
Binder B5 has a binding signal of 0.873 enrichment R.
Work on B6 yielded a binding signal of 0.998 enrichment R.
B7 gave a binding signal of 0.618 enrichment R.
B8 gave a binding signal of 0.841 enrichment R.
With B9 the binding signal was 0.854 enrichment R.
B10 gave a binding signal of 1.34 enrichment R.
B11 showed a binding signal of 0.823 enrichment R.
With B12 the binding signal was 1.31 enrichment R.
For B13, the binding signal was 0.914 enrichment R.
B14 gave a binding signal of 1 enrichment R.
